# Measured values from the supplement of paper PMC8728848.
# Some of the results follow.
# What was measured:
# Assay in all cases: glycan array binding signal (z-score within array); higher = stronger binding
# Conditions in all cases: glycan notation: IUPAC condensed, linker removed
# [1] = target: Fuc(a1-2)Gal
# In short: (§1)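 Glycan array data came from 3228 arrays in the Consortium for Functional Glycomics database, and only arrays with an available protein sequence were kept. Glycan names were put into IUPAC-condensed notation, and columns mapping to the same glycan were averaged. The binding signal is a within-array Z-score, averaged across arrays of one protein sequence run at different concentrations or buffers and across linkers. A negative Z-score can be read as non-binding.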
# [2] = target: Fuc(a1-2)Gal(b1-3)GalNAc
# In short: as §1
# [3] = target: Fuc(a1-2)Gal(b1-3)GalNAc(a1-3)[Fuc(a1-2)]Gal(b1-4)Glc
# In short: as §1
# [4] = target: Fuc(a1-2)Gal(b1-3)GalNAc(a1-3)[Fuc(a1-2)]Gal(b1-4)GlcNAc
# In short: as §1
# [5] = target: Fuc(a1-2)Gal(b1-3)GalNAc(b1-3)Gal
# In short: as §1
# [6] = target: Fuc(a1-2)Gal(b1-3)GalNAc(b1-3)Gal(a1-4)Gal(b1-4)Glc
# In short: as §1
# [7] = target: Fuc(a1-2)Gal(b1-3)GalNAc(b1-4)[Neu5Ac(a2-3)]Gal(b1-4)Glc
# In short: as §1
# [8] = target: Fuc(a1-2)Gal(b1-3)GlcNAc
# In short: as §1
# [9] = target: Fuc(a1-2)Gal(b1-3)GlcNAc(b1-2)Man(a1-3)[Fuc(a1-2)Gal(b1-3)GlcNAc(b1-2)Man(a1-6)]Man(b1-4)GlcNAc(b1-4)GlcNAc
# In short: as §1
# [10] = target: Fuc(a1-2)Gal(b1-3)GlcNAc(b1-2)Man(a1-3)[Fuc(a1-2)Gal(b1-3)GlcNAc(b1-2)Man(a1-6)]Man(b1-4)GlcNAc(b1-4)[Fuc(a1-6)]GlcNAc
# In short: as §1
# [11] = target: Fuc(a1-2)Gal(b1-3)GlcNAc(b1-3)Gal(b1-4)Glc
# In short: as §1
# [12] = target: Fuc(a1-2)Gal(b1-3)GlcNAc(b1-3)GalNAc
# In short: as §1
# [13] = target: Fuc(a1-2)Gal(b1-3)GlcNAc(b1-3)[Fuc(a1-2)Gal(b1-3)GlcNAc(b1-6)]GalNAc
# In short: as §1
# [14] = target: Fuc(a1-2)Gal(b1-3)GlcNAc(b1-3)[Gal(b1-4)GlcNAc(b1-6)]Gal(b1-4)Glc
# In short: as §1
# [15] = target: Fuc(a1-2)Gal(b1-3)GlcNAc(b1-3)[Neu5Ac(a2-6)Gal(b1-4)GlcNAc(b1-6)]Gal(b1-4)Glc
# In short: as §1
# [16] = target: Fuc(a1-2)Gal(b1-3)GlcNAc6S
# In short: as §1
# [17] = target: Fuc(a1-2)Gal(b1-3)[Fuc(a1-4)]GlcNAc
# In short: as §1
# [18] = target: Fuc(a1-2)Gal(b1-3)[Fuc(a1-4)]GlcNAc(b1-2)Man(a1-3)[Fuc(a1-2)Gal(b1-3)[Fuc(a1-4)]GlcNAc(b1-2)Man(a1-3)]Man(b1-4)GlcNAc(b1-4)GlcNAc
# In short: as §1
# [19] = target: Fuc(a1-2)Gal(b1-3)[Fuc(a1-4)]GlcNAc(b1-2)Man(a1-3)[Fuc(a1-2)Gal(b1-3)[Fuc(a1-4)]GlcNAc(b1-2)Man(a1-6)]Man(b1-4)GlcNAc(b1-4)[Fuc(a1-6)]GlcNAc(b1-4)[Fuc(a1-6)]GlcNAc
# In short: as §1
# [20] = target: Fuc(a1-2)Gal(b1-3)[Fuc(a1-4)]GlcNAc(b1-3)[Fuc(a1-3)[Gal(b1-4)]GlcNAc(b1-6)]Gal(b1-4)Glc
# In short: as §1
# [21] = target: Fuc(a1-2)Gal(b1-3)[Fuc(a1-4)]GlcNAc(b1-3)[Gal(b1-4)GlcNAc(b1-6)]Gal(b1-4)Glc
# In short: as §1
# [22] = target: Fuc(a1-2)Gal(b1-4)Glc
# In short: as §1
# [23] = target: Fuc(a1-2)Gal(b1-4)Glc6S
# In short: as §1
# [24] = target: Fuc(a1-2)Gal(b1-4)GlcNAc
# In short: as §1
# [25] = target: Fuc(a1-2)Gal(b1-4)GlcNAc(b1-2)Man
# In short: as §1
# [26] = target: Fuc(a1-2)Gal(b1-4)GlcNAc(b1-2)Man(a1-3)[Fuc(a1-2)Gal(b1-4)GlcNAc(b1-2)Man(a1-6)]Man(b1-4)GlcNAc(b1-4)GlcNAc
# In short: as §1
# [27] = target: Fuc(a1-2)Gal(b1-4)GlcNAc(b1-2)Man(a1-3)[Fuc(a1-2)Gal(b1-4)GlcNAc(b1-2)Man(a1-6)]Man(b1-4)GlcNAc(b1-4)[Fuc(a1-6)]GlcNAc
# In short: as §1
# [28] = target: Fuc(a1-2)Gal(b1-4)GlcNAc(b1-2)[Fuc(a1-2)Gal(b1-4)GlcNAc(b1-4)]Man(a1-3)[Fuc(a1-2)Gal(b1-4)GlcNAc(b1-2)Man(a1-6)]Man(b1-4)GlcNAc(b1-4)GlcNAc
# In short: as §1
# [29] = target: Fuc(a1-2)Gal(b1-4)GlcNAc(b1-3)Gal(b1-4)GlcNAc
# In short: as §1
# [30] = target: Fuc(a1-2)Gal(b1-4)GlcNAc(b1-3)Gal(b1-4)GlcNAc(b1-2)Man(a1-3)[Fuc(a1-2)Gal(b1-4)GlcNAc(b1-3)Gal(b1-4)GlcNAc(b1-2)Man(a1-6)]Man(b1-4)GlcNAc(b1-4)GlcNAc
# In short: as §1
binder,measurement,setting,value
Mg3lysM (Mycosphaerella graminicola) (protein) APQNPPTSCSAAPQPTGTGSPGTVCGSTTFTNYTVKAGDTLGAIAKQYNSGVCDIAKVNGIDNPDYIKPDQVLSIPANCVTPDNTSCVKPVPVITNTCVLGVGSTYTVKSGDSFSAIATSFNITLASLEARNPQIPNYDLIFPGQVINTPLCPNSVCDSIGTYVIESGDIFYNLAQSNNVTVGQLESLNVNVNVTDIHPGDIIILPHNCHNITASA,glycan array binding signal (z-score),[1],-0.076
same,glycan array binding signal (z-score),[2],-0.076
same,glycan array binding signal (z-score),[3],-0.085
same,glycan array binding signal (z-score),[4],-0.062
same,glycan array binding signal (z-score),[5],-0.051
same,glycan array binding signal (z-score),[6],-0.196
same,glycan array binding signal (z-score),[7],-0.064
same,glycan array binding signal (z-score),[8],-0.055
same,glycan array binding signal (z-score),[9],0.043
same,glycan array binding signal (z-score),[10],-0.039
same,glycan array binding signal (z-score),[11],-0.042
same,glycan array binding signal (z-score),[12],-0.131
same,glycan array binding signal (z-score),[13],0.259
same,glycan array binding signal (z-score),[14],-0.176
same,glycan array binding signal (z-score),[15],-0.182
same,glycan array binding signal (z-score),[16],-0.052
same,glycan array binding signal (z-score),[17],-0.115
same,glycan array binding signal (z-score),[18],-0.041
same,glycan array binding signal (z-score),[19],-0.09
same,glycan array binding signal (z-score),[20],-0.105
same,glycan array binding signal (z-score),[21],-0.061
same,glycan array binding signal (z-score),[22],-0.028
same,glycan array binding signal (z-score),[23],-0.071
same,glycan array binding signal (z-score),[24],-0.021
same,glycan array binding signal (z-score),[25],-0.045
same,glycan array binding signal (z-score),[26],-0.083
same,glycan array binding signal (z-score),[27],-0.055
same,glycan array binding signal (z-score),[28],-0.001
same,glycan array binding signal (z-score),[29],-0.047
same,glycan array binding signal (z-score),[30],-0.028
